{"source": "paper PMC4336329", "about": "(PLoS ONE, 2015)", "note": "Screen size: about 310,000 compounds; about 14,000 (4.5%) showed an effect of 50% or more. Effects have a minus sign here. The list shows a part of the results.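 Note: peak tail current of the secondary pulse compared with the same well before compound.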"}
{"target": "human ether-à-go-go-related gene (hERG) potassium channel (human, UniProt Q12809)", "sequence (Q12809 whole entry, looked up)": "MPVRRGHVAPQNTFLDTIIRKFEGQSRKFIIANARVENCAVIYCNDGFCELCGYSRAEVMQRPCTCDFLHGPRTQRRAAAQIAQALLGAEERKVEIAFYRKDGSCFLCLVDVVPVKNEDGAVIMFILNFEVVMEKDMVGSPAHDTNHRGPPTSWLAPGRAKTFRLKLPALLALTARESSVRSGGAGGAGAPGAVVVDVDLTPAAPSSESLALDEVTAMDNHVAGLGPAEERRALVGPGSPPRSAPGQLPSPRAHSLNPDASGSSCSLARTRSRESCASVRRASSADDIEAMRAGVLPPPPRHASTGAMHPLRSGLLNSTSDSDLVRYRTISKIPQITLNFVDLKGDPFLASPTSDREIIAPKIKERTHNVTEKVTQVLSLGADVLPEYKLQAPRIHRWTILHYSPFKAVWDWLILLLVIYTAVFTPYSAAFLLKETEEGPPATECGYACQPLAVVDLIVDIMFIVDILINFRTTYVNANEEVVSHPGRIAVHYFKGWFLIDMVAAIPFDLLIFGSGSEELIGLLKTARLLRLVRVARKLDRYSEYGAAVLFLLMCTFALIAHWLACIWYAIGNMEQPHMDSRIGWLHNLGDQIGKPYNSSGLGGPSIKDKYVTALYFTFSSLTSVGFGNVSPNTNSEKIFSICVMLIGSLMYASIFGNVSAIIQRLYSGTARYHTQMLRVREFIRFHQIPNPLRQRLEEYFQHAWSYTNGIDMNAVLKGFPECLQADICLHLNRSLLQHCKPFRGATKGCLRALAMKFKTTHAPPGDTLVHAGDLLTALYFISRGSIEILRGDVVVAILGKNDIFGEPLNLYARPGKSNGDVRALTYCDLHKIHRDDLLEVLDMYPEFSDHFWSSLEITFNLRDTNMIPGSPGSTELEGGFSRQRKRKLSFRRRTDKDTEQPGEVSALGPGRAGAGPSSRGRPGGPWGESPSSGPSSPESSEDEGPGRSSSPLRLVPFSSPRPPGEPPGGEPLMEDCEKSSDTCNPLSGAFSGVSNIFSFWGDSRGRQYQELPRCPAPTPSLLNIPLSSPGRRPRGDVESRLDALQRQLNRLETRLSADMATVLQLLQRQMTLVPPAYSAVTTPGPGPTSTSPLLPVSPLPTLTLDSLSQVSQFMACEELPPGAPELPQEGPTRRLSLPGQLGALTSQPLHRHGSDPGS", "assay": "primary screen, population patch clamp on CHO cells stably expressing hERG", "units": {"hERG current change (%, negative = inhibition) at 10uM": "%"}}
{"smiles": "COCCCNC(=O)C(C)N1c2cccc3cccc(c23)S1(=O)=O", "note": "(stereo not shown)", "hERG current change (%, negative = inhibition) at 10uM": 12.3}
{"smiles": "CC1=CC(C)(C)NC(=S)N1c1cccc2ccccc12", "hERG current change (%, negative = inhibition) at 10uM": 15.1}
{"smiles": "O=C(CSc1nnc(NC(=O)c2cccc(F)c2)s1)NC1CC1", "hERG current change (%, negative = inhibition) at 10uM": 11.8}
{"smiles": "COc1ccc(C2=NN(CCC(=O)NCc3ccc4c(c3)OCO4)C(=O)CC2)cc1", "hERG current change (%, negative = inhibition) at 10uM": -18.8}
{"smiles": "O=C(COC(=O)c1ccco1)NCCc1ccc(Cl)cc1", "hERG current change (%, negative = inhibition) at 10uM": -6.24}
{"smiles": "S=c1[nH]nc(Cn2cnc3ccccc32)n1-c1ccccc1Cl", "hERG current change (%, negative = inhibition) at 10uM": 18.4}
{"smiles": "COc1ccc(C2CC2/C(C)=N/OC(=O)c2ccc(F)cc2)cc1", "note": "(stereo not shown)", "hERG current change (%, negative = inhibition) at 10uM": 0.458}
{"smiles": "COc1cc(C2c3c(-c4cc(C)cc(C)c4O)n[nH]c3C(=O)N2CCCO)cc(OC)c1OC", "note": "(stereo not shown)", "hERG current change (%, negative = inhibition) at 10uM": -2.71}
{"smiles": "COc1ccc2cc(C(=O)C3CCCN(C(=O)c4cncs4)C3)ccc2c1", "note": "(stereo not shown)", "hERG current change (%, negative = inhibition) at 10uM": -22.8}
{"smiles": "COc1ccccc1CCNS(=O)(=O)CCNC(=O)c1ccc2c(c1)OCO2", "hERG current change (%, negative = inhibition) at 10uM": -3.02}
{"smiles": "O=C(/C=C/c1ccccc1)NCCCNC(=O)/C=C/c1ccccc1", "hERG current change (%, negative = inhibition) at 10uM": 1.71}
{"smiles": "O=C(O)c1ccc(OCC(F)(F)F)nc1", "hERG current change (%, negative = inhibition) at 10uM": 22.7}
{"smiles": "Cc1cc(C(=O)N/N=C/c2ccncc2)c(C)o1", "hERG current change (%, negative = inhibition) at 10uM": 13.9}
{"smiles": "CCOC(=O)C1=C(CS(=O)(=O)c2ccc(F)c(C)c2)NC(=O)NC1c1ccc(O)c(O)c1", "note": "(stereo not shown)", "hERG current change (%, negative = inhibition) at 10uM": 10.8}
{"smiles": "O=C(NNC(=O)c1ccccc1Br)c1ccc(Cl)cc1", "hERG current change (%, negative = inhibition) at 10uM": 5.81}
{"smiles": "Cc1cccc(CN2CCN(C(=O)CN(C)C(C)C(=O)Nc3ccc(C(N)=O)cc3)CC2)c1", "note": "(stereo not shown)", "hERG current change (%, negative = inhibition) at 10uM": 4.51}
{"smiles": "CC(=O)N1CCC(C(=O)Nc2nc(-c3ccccc3)ns2)CC1", "hERG current change (%, negative = inhibition) at 10uM": -9.29}
{"smiles": "COc1cc(NC(=O)Cn2cnc3sc(C)c(S(=O)(=O)N4CCN(C)CC4)c3c2=O)cc(OC)c1OC", "hERG current change (%, negative = inhibition) at 10uM": 19}
{"smiles": "CCc1ccc(CNC(=O)c2nn(C)c3c2CS(=O)(=O)c2ccccc2-3)cc1", "hERG current change (%, negative = inhibition) at 10uM": -22.2}
{"smiles": "Cc1c(S(=O)(=O)N2CCN(C(c3ccccc3)c3ccccc3)CC2)c(=O)n(C)c(=O)n1C", "hERG current change (%, negative = inhibition) at 10uM": -4.19}
{"smiles": "COc1ccc(OC)c(C2C(C(=O)c3cccs3)=C(O)C(=O)N2CCN2CCOCC2)c1", "note": "(stereo not shown)", "hERG current change (%, negative = inhibition) at 10uM": 10.9}
{"smiles": "COCCCN(Cc1cccs1)S(=O)(=O)c1c[nH]c(C(=O)OC)c1", "hERG current change (%, negative = inhibition) at 10uM": -8.01}
{"smiles": "COc1ccc(N2CCN(C(=O)c3ccccc3N(C)S(=O)(=O)c3ccc(C)cc3)CC2)cc1", "hERG current change (%, negative = inhibition) at 10uM": 2.94}
{"smiles": "CCN1/C(=C/C(=S)Nc2ccccc2)Sc2ccccc21", "hERG current change (%, negative = inhibition) at 10uM": 20.4}
{"smiles": "Cn1c(CNc2ccc(F)cc2)nnc1SCC(=O)NNC(=O)Cc1ccccc1", "hERG current change (%, negative = inhibition) at 10uM": 7.42}
{"smiles": "O=C(C(NS(=O)(=O)c1cccc2nsnc12)c1ccccc1)N1CCN(c2ccccc2)CC1", "note": "(stereo not shown)", "hERG current change (%, negative = inhibition) at 10uM": -71.4}
{"smiles": "CCOc1cc([N+](=O)[O-])cc2c1C(=O)Nc1ccccc1O2", "hERG current change (%, negative = inhibition) at 10uM": 14.9}
{"smiles": "COc1cc2[nH]c(=S)n(Cc3ccccc3)c(=O)c2cc1OC", "hERG current change (%, negative = inhibition) at 10uM": 11.4}
{"smiles": "Cc1cccc(C(=O)NC(=S)Nc2ccc(S(=O)(=O)N3CCN(C)CC3)cc2)c1", "hERG current change (%, negative = inhibition) at 10uM": 1.59}
{"smiles": "Cc1onc(-c2ccccc2Cl)c1C(=O)NC1CCCCCC1", "hERG current change (%, negative = inhibition) at 10uM": 4.05}
{"smiles": "COc1ccc(NC(=O)CSc2nc3[nH]c(=O)cc(O)c3s2)cc1OC", "hERG current change (%, negative = inhibition) at 10uM": 1.5}
{"smiles": "O=C(NCC(=O)N(Cc1ccccc1)C(C(=O)NC1CCCCC1)c1ccco1)c1ccco1", "note": "(stereo not shown)", "hERG current change (%, negative = inhibition) at 10uM": -24.5}
{"smiles": "O=C(NCc1cccc(C(F)(F)F)c1)C1CCN(c2ncccn2)CC1", "hERG current change (%, negative = inhibition) at 10uM": -38.3}
{"smiles": "Cc1cc(C(=O)NCCc2ccc(Cl)cc2)c2ccccc2n1", "hERG current change (%, negative = inhibition) at 10uM": 2.63}
{"smiles": "COc1ccc(CCNC(=O)c2cccc([N+](=O)[O-])c2)cc1OC", "hERG current change (%, negative = inhibition) at 10uM": -4.6}
{"smiles": "O=C(/C=C/Nc1cccc(O)c1)c1ccccc1", "hERG current change (%, negative = inhibition) at 10uM": 2.04}
{"smiles": "CCN(CC)C(=O)c1csc(Nc2ccc(C)cc2)n1", "hERG current change (%, negative = inhibition) at 10uM": -34.8}
{"smiles": "COc1ccccc1NC(=S)N1CCN(Cc2ccc3c(c2)OCO3)CC1", "hERG current change (%, negative = inhibition) at 10uM": -1.31}
{"smiles": "CCCCn1c(N)c(N(CCOC)C(=O)CSCc2cccc(C)c2)c(=O)[nH]c1=O", "hERG current change (%, negative = inhibition) at 10uM": 9.08}
{"smiles": "CCCCCc1nnc(NC(=O)C2CCCO2)s1", "note": "(stereo not shown)", "hERG current change (%, negative = inhibition) at 10uM": -1.64}
{"smiles": "O=C(Cn1cc2c(n1)CCCC2)Nc1cc(-c2cccc(Cl)c2)no1", "hERG current change (%, negative = inhibition) at 10uM": 8.59}
{"smiles": "C=C1c2cc(C)ccc2NC(=O)N1c1ccc(C)cc1", "hERG current change (%, negative = inhibition) at 10uM": 8.13}
{"smiles": "O=C(O)[C@@H]1CSC2c3ccccc3C(=O)N21", "note": "(stereo partly shown)", "hERG current change (%, negative = inhibition) at 10uM": 18.5}
